Source: the supplement of paper PMC11417369
± gives the standard deviation of the averaged measurements. The list shows a part of the results.

tested on: PfAP2-I AP2 domain 3 (GST-tagged); test: gcPBM binding intensity (ln(normalized median fluorescence intensity)); higher = stronger DNA binding
Procedure, shortened: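 Binding intensity is the highest Masliner-normalised natural-log median intensity over replicate spots in either probe orientation. To obtain it, GST-tagged P. falciparum DNA-binding domains made in E. coli were incubated for 1 h on an Agilent 4 × 180k array of primer-extended double-stranded 36-bp intergenic genomic probes plus negative controls. Detection used Alexa488 anti-GST antibody with scanning at 488 nm.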

Sequence | gcPBM binding intensity (ln)
TATATATATTAGTGTGCACACTTTTTATTTTTATCC [CACACA_site8506] | 9.33 ± 0.4
ATATATTTATAATAGGTGCATATGTTTTATTTTTCC [GTGCAC_site9849] | 10.1 ± 0.5
TGTTCTATTCTATTATTATTTACAAATTATAAATAA [GTGCAC_negctrl_site232] | 7.89 ± 0.37
AAAGAATTATATAAGGTGCACGAATGTTTCTTTAAT | 10.96 ± 0.035
ATATGTGTGTGTATTTGTACCCAATTTTTATATATA [XGTACX_site4948] | 8.29 ± 0.43
AAAAAAAAAAAAAAAAAAAAAATACATATATATATA [CACACA_negctrl_site290] | 9.48 ± 0.26
AGATATGTTTTTAATTGTACATAAATACACAAATAT [XGTACX_site5981] | 7.87 ± 0.37
TGTAATAAATAGTACACACACACATATATATATATT [CACACA_site1388] | 8.01 ± 0.48
TATAAATATATTTATACACACATTAGTGTATACATG [CACACA_site7397] | 7.85 ± 0.52
AGGTGAAAAATATATAATAATGTAACAAAAAAAAAT [XGTACX_negctrl_site394] | 7.78 ± 0.75
TCGTGTTAAATTTTTACACACAAACTTGCAATAATT [CACACA_site3824] | 9.11 ± 0.61
AACTATAACTAAAAAAATCACATAAAATATTTTATT [TGCATGCA_negctrl_site363] | 7.54 ± 0.49
AAAATATAAAATAATGCACACATAAACAAAAAATCA [CACACA_site8382] | 10.8 ± 0.96
TAAAGTTAAAAATTATGTACATATATATTGTATATT [XGTACX_site5528] | 7.52 ± 0.45
GATAAAATAGGACCATATTCTTTAAAACGATAAAAT [XGTACX_negctrl_site405] | 7.76 ± 0.48
ATATATATATATTTATGTACATATACATAATGTATA [XGTACX_site6387] | 8.88 ± 0.18
TAAGAAGTATTTTCCTGTACATATTTTATATGTATG [XGTACX_site4658] | 7.39 ± 0.26
TTATTTTATATATCACGTACATAGTTGTCTTCTTTT [XGTACX_site2906] | 7.8 ± 0.59
ATGAATCCTTAATATGAACACACAAATATATTACAC [CACACA_site7943] | 8.06 ± 0.45

Sequence | gcPBM binding intensity (ln)
TCCTTATTTATATAATGTACTTTTTTTTTTCATTTT [XGTACX_site4275] | 7.85 ± 0.58
TTTTTTATTTATCCTATATATTACTAAATGAAGAAC [GTGCAC_negctrl_site333] | 7.92 ± 0.38
TTATTTCAAAGTAAATCAGTAAATATTTGTTTTCTT [CACACA_negctrl_site1572] | 7.28 ± 0.46
TACAAGTATAAATAAGCACACATGTGGATATGTACA [CACACA_site4229] | 8.45 ± 0.52
ATAAATAAATACATATGTACATATATATATATATAT [XGTACX_site7145] | 9.22 ± 0.44
ATATATATATTAAGGGGTACGTAAAAAATTGGGAAG [XGTACX_site7322] | 8.91 ± 0.11
TCAGTTAATGTATATGTACACACGGGGTGTATATAT [CACACA_site9103] | 8.12 ± 0.46
AAATTATATCCCCTTTGTACTTACAGATCTTTATAC [XGTACX_site8163] | 7.97 ± 0.67
TAAAAAAAAATAAATACATGCATATAATACATTATA [TGCATGCA_site518] | 7.39 ± 0.42
TGAACATGTTAAAATAAACACACAGCTAAGGTTTTT [CACACA_site7934] | 7.34 ± 0.72
TATCATATAAATACATGTACATATTTGGAAAATAAT [XGTACX_site5373] | 7.79 ± 0.56
ATATATATATTAACAATACACACGTGTATACCTTAT [CACACA_site2217] | 8.94 ± 0.11
ATGTTTTGTAAAATGATTAAATATTAAGATTCAATA [CACACA_negctrl_site1743] | 7.44 ± 0.42
TAGTAAATAACAAAAGGAAAAATTAATGAGGCAAAA [TGCATGCA_negctrl_site526] | 7.81 ± 0.88
CATATACACGAACACACACACATATATATATATATA [CACACA_site4437] | 9.68 ± 0.54
CATCATAGCATTCCTCGTACAAATATAAACATATCA [XGTACX_site2711] | 7.92 ± 0.57
CTTAGAGTATTTAAATGTACACGTTTGTATATGTAT [XGTACX_site1767] | 8.09 ± 0.52
TTTATAAAATTATTTGCATGTAACAATTATAAATTG [TGCATGCA_site1026] | 7.43 ± 0.59
TTTTTTTTTCTTTCTCTTTAAATATTAATTAAAAAA [GTGCAC_negctrl_site90] | 7.68 ± 0.6

Sequence | gcPBM binding intensity (ln)
AATGTGAAATATAAATGTACATAAATATATATATAT [XGTACX_site8710] | 9.21 ± 0.3
AAAATATAAATATATTGTACTGTTATATAATAAAAT [XGTACX_site2132] | 7.56 ± 0.41
TAACTATCATGTATTACACACAATATTTATTATAGA [CACACA_site7301] | 7.69 ± 0.49
TTCTTTTTTCTTTATGGTACGTGTAATATATATCAA [XGTACX_site7960] | 8.26 ± 0.62
TACATATTTTTTATGTGTACATATTTTTTATGTGTG [XGTACX_site444] | 7.61 ± 0.057
CCCAATAATTAAACAACACACATATATATATGTAAT [CACACA_site3084] | 7.74 ± 0.67
ATAAAATACAGATAAACACACATATAAACACCCATA [CACACA_site5381] | 8.21 ± 0.14
CTTTATTTTTTATACACACACAATATGTATAAATAT [CACACA_site7638] | 8.14 ± 0.45
TATAAATAATGTTAAACACACATACCGATATATAAC [CACACA_site7306] | 7.77 ± 0.58
AAGCATTTCCATGGTGGTACTATACAAATAATAATT [XGTACX_site6193] | 7.76 ± 0.64
AAAAAAATTTGTATCACACACGTATTATAAAAAAAT [CACACA_site4182] | 7.72 ± 0.66
TATTAAACTAAATGTAGTACATACACAAACGTAATC [XGTACX_site4905] | 7.88 ± 0.65
TATTCGTGCAATAATGGTACACTTATAAATTATTCA [XGTACX_site1430] | 10.7 ± 0.71
TCTCTCTTATAAAATACACACGAACAATCATATTAT [CACACA_site8065] | 7.69 ± 0.54
ATTTTTTTTTTTAAATGTACATAATATATATATAAT [XGTACX_site2686] | 7.79 ± 0.43
CGAACATTATAAATGTCATTTTTTCCAACTTGATCT [GTGCAC_negctrl_site501] | 7.28 ± 0.61
GTACAAAAATAAATTGCACACATTTTAATAAAAAAA [CACACA_site2130] | 8.82 ± 0.12
AGATTTAAATATCATACACACTTTATCTATAATACA [CACACA_site6581] | 7.66 ± 0.73
